# In PubChem BioAssay AID1508642 (National Center for Advancing Translational Sciences (NCATS), 2021):
# Among all 43,000 compounds or so, about 200 (0.47%) were called active. Inconclusive results (about 12%) are left out. Calls come from the whole dose curve; as a rule, active = well fitted cell-killing curve with a large enough effect; inconclusive = small, poorly fitted or top-dose-only effect, or effect the other way; inactive = flat fitted curve, though single readings scatter. This is one part of the list.
# Assay: Cell viability qHTS assay in S16 Pmp22-F2sN cells; note: nearly all actives have a fitted effect of over 65% in size
# Conditions: S16 Pmp22-F2sN Schwann cells viability, CellTiter-Glo, 24 h; series mostly up to 57.5 µM; activity change, negative = cytotoxicity: at the top concentration
# Summary of the method: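 S16 Pmp22-F2sN Schwann cells (500-1,000/well) in phenol-red-free DMEM with 10% FBS received 23 nL compound by pin tool for 24 h at 37 °C. Viability was then read as CellTiter-Glo luminescence after 15 min at room temperature.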
# % is set by controls: 0 for no effect and ±100 for the full control effect.
row,SMILES,"activity change, negative = cytotoxicity"
1,Cc1nc2c(cnn2-c2ccccc2Cl)c(=O)n1-c1ccc(C(C)C)cc1,inactive: 0.572%
2,COc1cc(NC(=O)Cn2ncc3c(=O)oc4ccccc4c32)cc(OC)c1OC,inactive: 6.65%
3,CN(C)S(=O)(=O)N(CC(=O)NCCSCc1ccccc1Cl)c1ccccc1,inactive: -9.54%
4,COc1cccc(-c2nc(SCC(=O)Nc3ccc4c(c3)OCO4)c(-c3ccccc3)[nH]2)c1,inactive: -28.3%
5,CCCc1noc(-c2ccc(N3CCCCC3)c([N+](=O)[O-])c2)n1,inactive: 21%
6,COc1ccc(CCn2cc3c(c2-c2ccccc2Br)c(=O)n(C)c(=O)n3C)cc1OC,inactive: -14.8%
7,Cc1cccc(N2CCN(S(=O)(=O)c3cc(Br)cc4c3N(C(=O)C3CC3)CC4)CC2C)c1 (stereo not given),inactive: 10.4%
8,Cc1ccc(S(=O)(=O)Nc2cc3c(cc2C)n(C)c(=O)c(=O)n3C)cc1,inactive: 9.91%
9,COc1ccc(-c2noc(-c3ccc(NCc4ccc(C)cc4)c([N+](=O)[O-])c3)n2)cc1OC,inactive: 7.42%
10,Cc1ccccc1NC(=O)CSc1nc(-c2ccc(F)cc2)c2cccc(C)c2n1,inactive: 2.22%
11,COc1ccc(-n2nc(C(=O)N3CCC(C)CC3)c3c4ccccc4n(C)c3c2=O)cc1Cl,inactive: 0.68%
12,O=C(Cn1c(=O)n(-c2ccc(F)cc2)c(=O)c2sc3ccccc3c21)N1CCCC1,inactive: 21.7%
13,Cc1cc(NC(=O)N2CC=C(c3c[nH]c4ccccc34)CC2)ccc1Br,inactive: -13.5%
14,Cn1nc(C(=O)NCc2ccccc2)c2c1-c1ccccc1SC2,inactive: -3.87%
15,CCOC(=O)c1sc2ccccc2c1S(=O)(=O)Nc1c(C)cccc1C,inactive: -0.84%
16,Cc1ccc(CSC2=Nc3ccccc3C3=NC(CCC(=O)N4CCN(c5ccccc5)CC4)C(=O)N23)cc1 (stereo not given),inactive: -18.8%
17,CCOC(=O)c1c(N)n(-c2ccc(C)c(C)c2)c2nc3ccccc3nc12,inactive: 6.83%
18,Cc1cc(C)c(NC(=O)Cn2nc3c(cc2=O)CCCC3)c(C)c1,inactive: -10.6%
19,COCCCN1C(=O)N(c2ccccc2)C(=O)C1CC(=O)Nc1ccc(F)cc1 (stereo not given),inactive: -11.4%
20,O=C(Nc1ccc(S(=O)(=O)Nc2ccccc2)cc1)N1CCCC1,inactive: -7.9%
21,COc1ccccc1NC(=O)N1CC(=O)Nc2sc3c(c2C1c1ccccc1)CCCC3 (stereo not given),inactive: 13.7%
22,CCOc1ccc(CC(=O)Nc2c(C(=O)c3ccc(F)cc3)oc3ccccc23)cc1OCC,inactive: 7.78%
23,CCOC(=O)c1c(C)oc2nc(C)nc(Nc3cccc(OC)c3)c12,inactive: 5.77%
24,COC(=O)c1ccc(C2Nc3c(C)cc(C)cc3C3C=CCC32)cc1 (stereo not given),inactive: 9.68%

row,SMILES,"activity change, negative = cytotoxicity"
1,Cc1ccccc1CSc1cn(CCNC(=O)c2cccs2)c2ccccc12,inactive: -15.4%
2,COc1ccc(C(CNC(=O)COc2ccc(C)c(C)c2)N2CCCCC2)cc1 (stereo not given),inactive: 1.12%
3,CCC(O)c1nc2ccccc2n1Cc1cccc(Cl)c1 (stereo not given),inactive: 0.486%
4,CCOc1ccc(CNC(=O)C2CCN(S(=O)(=O)c3c(C)noc3/C=C/c3ccc(C)cc3)CC2)cc1OC,inactive: 4.89%
5,Cc1c(CNCc2ccc(Cl)cc2)c(C(=O)O)c(C)n1Cc1ccc(F)cc1,inactive: -5.89%
6,CCOc1ccc(CNS(=O)(=O)c2ccc3[nH]c4c(c3c2)CCCC4)cc1OC,inactive: -21.5%
7,COc1ccc(NC(=O)CSc2nc3nc(C)cc(C)n3n2)cc1,inactive: 2.77%
8,CC(=O)Nc1ccc(NC(=O)CC2Sc3ccccc3NC2=O)cc1 (stereo not given),inactive: -6.37%
9,Cc1ccc(Cl)cc1N1CCN(C(=O)c2cc(S(=O)(=O)N3CCC(C)CC3)cn2C)CC1,inactive: -0.459%
10,COc1cccc(CNC(=O)CCc2nnc3n(C)c(=O)c4sccc4n23)c1,inactive: -2.52%
11,CCCN(CCC)CCCNC(=O)C1CCC(CNS(=O)(=O)c2ccc(NC(C)=O)cc2)CC1 (stereo not given),inactive: 10.5%
12,COc1ccc(NC(=O)Cn2c(CCC(=O)O)ccc2-c2ccccc2)cc1Cl,inactive: 0.698%
13,COc1ccc(CNC(=O)Cn2ccc3cc(S(=O)(=O)N4CCCCCC4)ccc32)cc1OC,inactive: -23.3%
14,COc1cccc(-c2cn3c(n2)sc2cc(C(=O)NCc4cccs4)ccc23)c1,inactive: -1.46%
15,COc1ccc2oc(=O)cc(CN3CCN(C(=O)c4ccccc4F)CC3)c2c1,inactive: -12.6%
16,CCS(=O)(=O)N1CCc2cc(C(=O)N3CCN(c4cccc(C(F)(F)F)c4)CC3)ccc21,inactive: -13.4%
17,Cc1ccc(NC(=O)C(=O)NCC(c2cccnc2)N2CCOCC2)cc1C (stereo not given),inactive: 1.74%
18,CCc1ccc(OC(=O)CSc2nnc(-c3ccc4c(c3)OCO4)o2)cc1,inactive: 2.61%
19,CCn1c(CN2CCC(C)CC2)nc2cc(NC(=O)c3ccccc3[N+](=O)[O-])ccc21,inactive: 9.35%
20,Cc1ccc(C)c(Cn2c(=O)c3c(nc4n3CCN4c3ccc(F)cc3)n(C)c2=O)c1,inactive: 6.37%
21,CCOC(=O)c1c(C)[nH]c(CCC(=O)NCCCN2CCN(c3cccc(Cl)c3)CC2)c1C,inactive: -25.5%
22,CCOc1ccc(-n2c(Cc3ccccc3)nnc2SCc2nc(-c3ccccc3C)no2)cc1,inactive: 9.72%
23,CC(=O)NCCNC(=O)CCCc1nnc2n(CCC(C)C)c(=O)c3sccc3n12,inactive: 3.04%
24,Fc1cccc(-c2nc(-c3ccncc3)no2)c1,inactive: -1.8%

row,SMILES,"activity change, negative = cytotoxicity"
1,Cc1ccc(C(=O)c2oc3ccccc3c2NC(=O)c2cc(=O)c3ccccc3o2)cc1,inactive: 5.24%
2,CCOCCCNC(=O)C(c1ccc(OC)cc1)N(Cc1cccs1)C(=O)c1ccc(NC(C)=O)cc1 (stereo not given),inactive: -13.6%
3,Cn1c(=O)oc2cc(S(=O)(=O)CCC(=O)NCc3ccccc3)ccc21,inactive: 5.11%
4,CCOc1ccc(N2CC(c3nc(-c4cc(OC)c(OC)c(OC)c4)no3)CC2=O)cc1 (stereo not given),inactive: 4.74%
5,CCOc1ccc(N(C)S(=O)(=O)c2ccc3c(c2)C(C)(C)C(=O)N3C)cc1,inactive: 2.79%
6,Cc1ccc(C)c(NC(=O)C2CCCN(S(=O)(=O)c3c(C)noc3/C=C/N(C)C)C2)c1 (stereo not given),inactive: 3.06%
7,CCOC(=O)c1c(C)oc2nc(C)nc(NCC3CCN(Cc4ccc(Cl)cc4)CC3)c12,inactive: 21%
8,CC(=O)OCC#CCSc1nnc(-c2cccc(Br)c2)o1,inactive: 10.2%
9,CCN(c1ccccc1)S(=O)(=O)c1nnc(NC(=O)COc2ccc(OC)cc2)s1,inactive: 2.46%
10,COCCNC(=O)C1CCN(S(=O)(=O)c2ccc3c(c2)CCCN3C(C)=O)CC1,inactive: 1.51%
11,CCOC(=O)c1[nH]c(C)c(CCC(=O)N2CCN(c3ccccc3)CC2)c1C,inactive: -1.6%
12,COc1ccc(-c2nc3n(n2)C(c2ccc(OC)cc2)C(C(=O)Nc2cccnc2)=C(C)N3)cc1 (stereo not given),inactive: 22.4%
13,COc1cccc(N2CC(NC(=O)c3ccc(S(=O)(=O)N4CCCC4)cc3)CC2=O)c1 (stereo not given),inactive: -1.93%
14,O=C(NC1CCCC1)c1c[nH]c2ccc(S(=O)(=O)Nc3cccc(C(F)(F)F)c3)cc2c1=O,inactive: 12.8%
15,Cc1ccc(-c2noc(COc3ccc(Br)c(C)c3)n2)cc1,inactive: -8.26%
16,O=C(C1CCC(CNS(=O)(=O)c2ccc(Br)s2)CC1)N1CCN(c2ccccc2)CC1 (stereo not given),inactive: -1.83%
17,Clc1cccc(CNc2ncnc3c2nc2n3CCCC2)c1,inactive: 1.74%
18,Cc1nnc(SCc2cc(=O)n3c(C)cccc3n2)s1,inactive: -7.4%
19,COc1ccc(-n2ncc3c(N4CCN(c5cccc(C)c5)C(C)C4)ncnc32)cc1 (stereo not given),inactive: 38.6%
20,O=C(Cn1c(=O)n(Cc2ccc3c(c2)OCO3)c(=O)c2ccccc21)Nc1cccc(Cl)c1,inactive: 13.2%
21,Cc1c(C(=O)N2CCCC2)oc2c1-c1nn(CC(=O)NCc3cccc(Br)c3)cc1CC2,inactive: -26.2%
22,NS(=O)(=O)c1ccc(NC(=O)CCn2c(=O)oc3ccccc32)cc1,inactive: 6.66%
23,COc1ccc(Cl)cc1NC(=O)CCc1nc(-c2ccccc2F)no1,inactive: -19.7%
24,COc1ccccc1CNC(=O)C(Cc1ccccc1)NS(=O)(=O)c1ccc2c(c1)oc(=O)n2C (stereo not given),inactive: -16.1%

row,SMILES,"activity change, negative = cytotoxicity"
1,CCOC(=O)c1cccc(NC(=O)CSc2ncc3c(n2)-c2ccccc2N(C)S3(=O)=O)c1,inactive: 3.07%
2,Cc1nn(Cc2noc(C(=O)NCc3ccc(F)cc3)n2)c(C)c1Br,inactive: 1.34%
3,O=C(NCCc1ccccc1)c1ccc2c(c1)N(Cc1ccccc1Cl)C(=O)c1ccccc1S2,inactive: 16.7%
4,COc1ccc(-c2nc3scc(CCNS(=O)(=O)c4ccc(F)cc4F)n3n2)cc1OC,inactive: 9.61%
5,CCc1nnc(NC(=O)CSc2nc3c([nH]c4ccccc43)c(=O)n2-c2cc(C)cc(C)c2)s1,inactive: 1.4%
6,O=C1CC(c2nc3ccccc3n2CCCCOc2ccccc2)CN1c1ccccc1Cl (stereo not given),inactive: -24.2%
7,COc1ccc(CC(=O)Nc2nc3c(s2)CC(C(C)(C)C)CC3)cc1 (stereo not given),inactive: 21.9%
8,Cc1ccccc1CNC(=O)C(C)n1nc(C)n2c(cc3occc32)c1=O (stereo not given),inactive: 12.2%
9,Cc1ccc(-c2nc3c(c(SCC(=O)N4CCCCC4)n2)Cc2cc(C)ccc2O3)cc1,inactive: 0.417%
10,CCn1c(CNC(=O)c2ccc(OC)cc2)nnc1SCC(=O)Nc1ccc(OC)cc1,inactive: 8.77%
11,Cc1ccc(-n2c(=O)c3c(c4cc(C)ccc4n3C)n(CC(=O)NCc3ccccc3Cl)c2=O)cc1,inactive: 23.1%
12,O=C(NCc1ccccc1Br)c1ccc2nc(N3CCCCC3)sc2c1,inactive: 9.94%
13,CCCCN(CCCC)C(=O)CN(C)S(=O)(=O)c1ccc2c(c1)c(=O)n(C)c(=O)n2C,inactive: -23.7%
14,CC(Nc1ccc(-c2nc(-c3ccncc3)no2)cc1[N+](=O)[O-])c1ccccc1 (stereo not given),inactive: 7.02%
15,Cc1cc(C)cc(N2CC(c3nc(-c4ccccc4C)no3)CC2=O)c1 (stereo not given),inactive: -9.86%
16,CC(=O)Nc1c(C)nn(-c2ccccc2)c1N1CCC(C(=O)NCc2ccc(Cl)cc2)CC1,inactive: 6.41%
17,Cc1cccc(NC(=O)Cn2c(=O)n(-c3ccccc3Cl)c(=O)c3c(C)c(C(=O)N(C)C)sc32)c1,inactive: 2.95%
18,CCOC(=O)c1ccc(NC(=O)CN(c2ccc(C)cc2)S(=O)(=O)c2c(C)noc2C)cc1,inactive: -6.19%
19,Cc1nc2c(C(=O)NCCc3ccc(Cl)cc3)cnn2c(C)c1Cc1c(F)cccc1Cl,inactive: 16.7%
20,CCOC(=O)c1ccc(CN(Cc2ccccc2)S(=O)(=O)c2ccc(C)cc2)cc1,inactive: 5.26%
21,COc1ccc(CCC(=O)NC2CC(=O)N(c3ccc(C)cc3)C2)cc1 (stereo not given),inactive: 2.14%
22,CCCCNC(=O)C(CC)Sc1nnc(-c2cccc(F)c2)c(-c2cccc(F)c2)n1 (stereo not given),inactive: 0.939%
23,Cc1cccc(C(=O)Nc2ccc(-c3nc4ccccc4s3)cc2Cl)c1,inactive: 8.14%
